Some of the results follow. At the low end of the ranking, values are background and their order means little. The protein was read in a cell extract, so binding may be indirect.
Biological target: T1, HNF4alpha2 (COS-7 nuclear extract) (UniProt P41235)
T1 sequence: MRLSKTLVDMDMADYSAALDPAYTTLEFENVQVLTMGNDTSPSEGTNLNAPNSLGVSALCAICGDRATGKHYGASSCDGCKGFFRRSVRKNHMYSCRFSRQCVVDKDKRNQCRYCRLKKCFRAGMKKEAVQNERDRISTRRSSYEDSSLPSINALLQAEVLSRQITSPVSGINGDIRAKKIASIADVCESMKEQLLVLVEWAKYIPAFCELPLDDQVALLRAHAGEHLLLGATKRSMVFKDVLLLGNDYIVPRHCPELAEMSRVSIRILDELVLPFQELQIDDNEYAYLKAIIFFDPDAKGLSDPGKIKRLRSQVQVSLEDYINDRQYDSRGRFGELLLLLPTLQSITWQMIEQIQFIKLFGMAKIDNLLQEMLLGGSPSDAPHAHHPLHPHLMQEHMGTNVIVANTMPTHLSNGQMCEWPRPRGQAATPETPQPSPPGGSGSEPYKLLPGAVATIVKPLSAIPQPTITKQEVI
Experiment: protein-binding microarray
Conditions: COS-7 nuclear extract on double-stranded Agilent 4x180k PBM; binding buffer, salt, pH and temperature not given; high values mean tight binding; double strand, one strand shown; sequences stand for … in …GCCTAGGGAGATTAGAGTATCGGTCGA

Row | Sequence | binding signal (log2 normalized intensity)
1 | TGCTGGAATGAGGGAGGCAGCCACCTAGGC | -1.1
2 | GCTAGCATTGCTCAGACAGGGCAAAGGTGC | 2.52
3 | GCTTTGGACTTTGGGCTGTGTTTTGCCCCT | 4.7
4 | CTAAGAGCCGCAGAGCTAATGTTCAAATCC | -0.775
5 | CTCAAAGGAGGTCAGAACTGTGGACTCGCT | 0.551
6 | ATAAGACACATTCCATGCTTATCAGTGTAC | 0.893
7 | CTTGTTTGTCAAGTTTGGTAAGCAGACCCC | 2.65
8 | ATTCCCTTTCTCCTCCCCTCCCCTCCCCCC | 6.91
9 | GGGTCCACATTCCAGGAATATTCAGATATT | -0.976
10 | GGCTCAGGCCGGTTGGCCAGGTTCCTCCAC | -1.09
11 | AAACCACACACTCCATAACTTTGGGACACT | -1.08
12 | TGGATGGGGGAGGGGACTTCGCTGGAGGTG | -0.382
13 | AAAGATATCTCTGTGGATAGCTCAGGGATT | -0.751
14 | CCTGCCTACATCAAGAGGATTACATAACCA | -1.14
15 | GCTCCCAGTGCACACAGACTTTTGTGTGGT | 1.22
16 | CTGCTTTTATGACCTTTGACTGCAGAAGAT | 5.27
17 | ATAAGGCTGCCTCCTATCCTCTGATCCCCA | 1.85
18 | TTTACAGGACATAGTCCTCTGCATATTTCT | -0.722
19 | GATCAAGAGGAAGATCTTTTTGATGACTTT | 0.855
20 | CAGAGTCCAGAGGTCACTTTGCTGCCTTTT | 4.5
21 | CAGGGAAGAGCCGGCCGGCGGGGTCACGTG | 2.79
22 | TTATATCCCCTGCCTGGGTCCTGGGAGCAA | 0.066
23 | TAGATAAACTACTTTATATTCCTTTGTATC | 0.86
24 | CTTTAGAGAAACGCACTCGCCTCTCCTGTT | -0.777
25 | CAGAAAGTCCGGGGGCCAGTTCACTCAGTC | -1.17

Row | Sequence | binding signal (log2 normalized intensity)
26 | GGTATGTATGGAATGTCACTTTCTGACAGG | 1.37
27 | TGGGTGGAAGGAAAAGAGGAAAACCAGCTC | -1.13
28 | TGAGGCAAAATTCCTCGCTAGCTGTCAATC | -1.18
29 | GCACAGTTACTCCACAACTTGTTCTATTGT | 1.31
30 | TCAGAGCTTGAAAAGTCTTTCTGCCAAAGT | 0.27
31 | TGTGCAGCTTTGTGTAAAACTTCAAAGAAG | -0.427
32 | CTGAGGTGGAAGGATCACCTGAGTCCAGAG | -0.288
33 | ATGTCTAACCTCCTGGGAATGCAGTCCAGT | 0.0532
34 | CCGGTTCCTCTGGATACCCTTCCCCCCAAG | 4.97
35 | TTTGGCTCTAGAGGAGTCCCCTTAAAATTC | 0.857
36 | ACGGCTGCTGTAACAAGTGGCTATAAACTA | -1.1
37 | GCCACCATTGATCTAACAGGAGGTGGAGCT | -1.18
38 | AGTGTGACCCTGAACCTACAGCCCCTGTGG | -0.752
39 | AGCTGGGGTGCCTGATAATGACTCTTGAAC | 1.23
40 | CCTTTTTGCATGAGAATCTGACCTTTGGTT | 6.46
41 | TTAGGAATGCAACTCTAACCTTTACCTTCT | 2.13
42 | TTCAATTTTTTTGTTGTTATCCATTTAAAA | 1.04
43 | CATCCTGACCATCTGCGAAATGGGGATAAA | -1.03
44 | CTAAATCTGAATAGAACTCAGGAAAGATCA | -0.905
45 | TCCTGGTGCAGGGGGCGAGCATGGCCGCTC | -1.19
46 | CTCGGCATTCAGACAGACCCAGGGGAATAA | -1.1
47 | TACAGTCAGAGGCCTGAAGGCCCCCAGGTA | 2.04
48 | GCCACCTTGGTGAGAGATTAAACATGCTCT | 0.469
49 | CAAGGGATCGTCCAAATACCTAGCTGTTTG | -1.07
50 | TGCTGAAGATAAGACTTCCTCAGATAACCC | -0.855

Row | Sequence | binding signal (log2 normalized intensity)
51 | GTACTGGGACTGTGCAGACAAGATATGAGG | -0.778
52 | GAGCATATGTATGTCAGAGTATGTGTGTAT | 2.43
53 | TCAGAAGCCACCAGTGCAAATATAAAAGGC | -1.03
54 | AGCTTCCAGAATAGCCTCTGCAACTCAGAG | -1.1
55 | AGAATTCGATTGTTTAGGAGCCAATTATGC | 0.98
56 | TAATTAAGACTCAGTCGGCTGTCAAATCAC | -1.16
57 | TTGATATTTATCAAGATGAACTTTGACCCA | 10.8
58 | GAGGCAGGACCTTGGGAAAGGAGAAGCTGG | -1.14
59 | ACAGATAAGATTTGGAAAATATTGCCAATA | -1.08
60 | AGATTCCAGGGGAGGGTAAGAGTCCAACTT | 3.18
61 | TTGTAGCTCTCAGCTCCTACATTACACTCC | -1.17
62 | CCCGGCCAACGGTCGGAAGGGAGGTGCCAT | -1.08
63 | AGAGGCCAGCTAAAACTGCAGATTGACTCA | -1.02
64 | GTTTGAATTCTTGCCTATCCCATAGGTGAG | -1.04
65 | CATTACTATCTGCTGGGGGCTGGGCCCCAC | -1.21
66 | GTGGCCACAAAATGAACACCTGTTCTAATC | -0.644
67 | GAAATAGTGAGACAGACATGCGACATGAGG | 0.09
68 | GGAGGCTGCAGCGCCACATTCTGAGCCAGC | -1.02
69 | CTCCCCTCCTCCCTTGCTCACCCCACGGTT | 4.18
70 | TTCAGGTTTGCTAATATCTGATGTTAAATC | 1.81
71 | GAAACAACACCAGCAATCACCTACCCCCAG | 3.95
72 | AAAAATGGGCTGGGACTCATTTATGGAGGA | -0.911
73 | TCACACGGGGATGGCAGACGGGGCTCTCAG | -1.06
74 | AAACAGGTGAAAGATAAGGGCTAGTTCATT | -1.07
75 | TTCTTGTTAACCTCCTATGATCTTTCATTC | 0.946

Row | Sequence | binding signal (log2 normalized intensity)
76 | CAGGCGCCGACTGCCAGGAGGGGACTTCAA | -1.15
77 | GTCATAAGAAACATTTTACAACCTATTCTC | -0.9
78 | GCTAAAACCCTGGCCACTCCCTGATAGAGA | -1.07
79 | AATATGGTCCCTGACCTTAAGGAGTGTCCT | 1.99
80 | TACAGATATTCTGAGACAACACTCAGGATA | 0.111
81 | TTTTCTCCTTTCCTCCTATGTCAATAGAGC | 0.915
82 | GGCCGTATCAGAAGAACTGCACTGTATCTT | 0.466
83 | AGCGATCATGGGTGACCCGTTAAGAATGAG | 0.437
84 | GGGGGTAGGTGGAGTGAGGGAGGGGGGCTG | -1.09
85 | AAAGCCCTAGCTGACTGCGTCAGGCAGTTG | -1.3
86 | GGTCACGTGCCGCTGCGGGTCACGTGCCGC | -0.00572
87 | TTATCTATACAGTTGTGGGTATGTCTGTAG | 1.97
88 | CCTCAGAGATGTTTAGTGAGCTGTCTAATT | 0.518
89 | ATCATTTCTACAGGGTCAAGCAAACAAATG | 1.32
90 | TGCCCATCTGGTGGTGGTTCTTGTTTCATT | 1.73
91 | AAGCTCTGAAAGCTTCAAAGGACAGGCTGA | -1.12
92 | AGGTCAGAGGACTTCCAAAGCCCCTTTCCA | 0.462
93 | GGATAAGTCTGTCTTGCTGTTTTTCCAGTT | 1.83
94 | AAATGCCTTCAGGGGCATTTGAGTACATGC | 0.926
95 | AAGTTCCACATCAAGCACATTCCAGAACCA | -0.922
96 | CTCCTGGTTGGGGCCTCCCTCCGTGGGGCT | -1.18
97 | AGTTTCTTCACTGACGAAACTCACATACTG | -1.18
98 | TACTATGCAATAACCAGGGAGTGGCAGCAT | -1.08
99 | CACCTTTTGGCTGTAGAAAGACTAAAGTTC | 2.19
100 | CTTTAGCTCAGCGGTTACTTCGAGTACATT | 0.818

Row | Sequence | binding signal (log2 normalized intensity)
101 | GAACCATTTGTGAGGATGGGCAGTCCCTAT | -0.968
102 | GATCTCCCCACATTCCAACACAGGGTCAAT | 3.03
103 | GCTGTGTGACTCACCTTTGCTCTGATCTTT | 3.17
104 | CAGTTTGGCTTCTGACCTTTGGCATTGTGT | 5.81
105 | CCAAATCCCTGCCCACATCCATTTTCTATC | 1.11
106 | TCAATGTCCCCTTAGGAATAGTATCAGGCA | 1.22
107 | ATCTGCTGCCCTTCCCTCCACTATTGTCCT | 2.8
108 | AATGGACCCAAGCGGCCATTTACTGACTAA | -0.855
109 | TGAGAGGTGCTGCATGGGCTGAGCCCAGCA | -1.23
110 | AGGACCATGTTCTCCTAAAGTGACTAGAGA | -1.12
111 | AACAGGGCTCCTGTTCAGCATAGTCCTGCC | -1.1
112 | CATGAGAAACATCCACATGTGGGTCCAAAG | 2.45
113 | CCGCCTCTTGGCCTCCCCCTTCTGAGTCTC | 2.69
114 | TGGATCGCTTGGCTCAGGCCGGTTGGCCAG | -1.15
115 | GAAACGGGTTCAAGCTTGATCCAGGATCCT | -1.02
116 | TGCGGCTCTTCTGATCGTGAGAAGAGGACT | -0.118
117 | CTCTCTTTGTGAAATGGGACCCAACTTTTG | 1.3
118 | GCTTAATCTCTGCTCATAATGCCAGGCAGG | -0.432
119 | GGTCAATGTGCACATTCGAAGTTTTGCTCC | 1.37
120 | GACAGAAGGGAGAGTCCAAGATACCACTGA | -1.15
121 | AGAAATGTTATCTCAGTAGACTAACGTATG | 0.476
122 | GCATCGTGGGTATTTGGGGAGTTCTTTCTG | 1.1
123 | AATGATCTGGTCAGACTGAGAGAGCAGGGC | -1.05
124 | GCCTCTAGCCCAATATTTGCTTACCAAACT | -0.117
125 | GCCTGGCGTGGATTCCGAGCGTTGGTGTCT | 0.858

Row | Sequence | binding signal (log2 normalized intensity)
126 | CAGGTCTTTCTGGAGATAACAGTGTAAGGA | 1.28
127 | TGGTTTTATGGTGTCTTATCTTCCTCTGGC | 1.96
128 | ATTGACCCTTAGGCCAAGGCTTACTGGCGC | -1.03
129 | TCCAGCCTCCAGCTACTCACTCTTCCCAAA | -1.12
130 | GTGAGGGAGAAGTTTTATGGCAGGGTCGGA | 1.77
131 | CAGTGTGGCAGGTGAAATAGCTGAACTATT | 0.604
132 | CCCCGCGCCGCGTCCCTTCCCCCGGCGCAG | 4.24
133 | GATTAAACAAACAAGTTTTATTGGGGGGTC | 1.38
134 | ATCTGAGGTGGTCCAGGGCCCTTACCATCA | -1.11
135 | CGTGCGGTCGGGCGCGCGGGCCGGGAGGGG | -1.15
136 | ATAGAACACTTGTACATACTTTTGGGGTAT | 0.796
137 | GAGGGTGGTGGGTGAAGGATGGAATGCTGA | -1.16
138 | TTCAACCTCTTTCTCTTTGATGTAAATTTT | 1.36
139 | TGAAGAAAGATCACACAAATGGATCTTTCT | -1.1
140 | CAAATCATTACTATCTGCTGGGGGCTGGGC | 0.13
141 | AAACATCCTGCCTAACCACCTGACCACAAC | -1.01
142 | ACTTGTGGTATGTTTGGATTGGGCAATGAC | 1.87
143 | TCTGATGTACCCAGCACTGTCAGCAGGGGG | -1.08
144 | CATAGACCCTGTTGGTTTCTGGGATTTGTA | 0.967
145 | TAGTCTCCTATCAAGAAAATAGAAGTGCTA | -1.17

— PMC10726135
